Data: PubChem BioAssay AID651820 (National Center for Advancing Translational Sciences (NCATS), 2012)
Out of some 340,000 compounds screened, about 12,000 (3.5%) were called active. Inconclusive means that the source gave no clear call. Such entries were picked first, then a sample of the others. Calls come from the whole dose curve; as a rule, active = well fitted inhibition curve with a large enough effect; inconclusive = small, poorly fitted or top-dose-only effect, or another doubt; inactive = no such curve, though single readings can be large or run the other way. Potencies of inconclusive entries are left out as doubtful fits.

Experiment: qHTS Assay for Inhibitors of Hepatitis C Virus (HCV)
Conditions: Huh7.5.1 HCVcc-Cre (HCVcc is cell-culture hepatitis C virus) infection, luciferase reporter, 44 h; activity change, negative = inhibition: at 41.8 µM (top of the series) unless noted
In short: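 A cell-based infection assay in which seeded cells (1,000 per well) receive test compound after 4 h, are inoculated with HCVcc-Cre at approximately 0.5 moi, and are incubated 44 h before luminescence detection.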
% is set by controls: 0 for no effect and ±100 for the full control effect; potency is the fitted concentration of half-maximal effect; tags give direction and shape of the fitted curve.

SMILES | Potency | activity change, negative = inhibition
COC(=O)CNC(=O)/C=C/c1cc(Br)ccc1OC | inconclusive [inhibitor, single point] | 
CS(=O)(=O)c1ccc(Cl)c(NC(=O)c2ccc3ccccc3c2)c1 |  | inactive: 0.662%
COC(=O)c1cc(CSc2ncnc3sccc23)oc1C | inconclusive [inhibitor, single point] | 
COc1ccc(C(C(=O)NCCC(C)C)N(CCN2CCOCC2)C(=O)Cn2nnc3ccccc32)c(OC)c1 (centres undefined) |  | inactive: 11.8%
CCOC(=O)c1ccc(-c2ccc(/C=N/NC(=O)CN(c3ccccc3Cl)S(C)(=O)=O)o2)cc1 | inconclusive [inhibitor, partial curve] | 
COc1ccc(/C=C/C(=O)c2ccncc2)c2ccccc12 | inconclusive [inhibitor, single point] | 
Cc1cc(NC(=O)CSc2nc3ccccc3c(=O)n2C(C)c2ccccc2)no1 (centres undefined) | inconclusive [inhibitor, partial curve] | 
CCNc1nc(-c2ccc(Cl)cc2)cs1 | inconclusive [inhibitor, partial curve] | 
CN(C(N)=S)c1ccccc1 | inconclusive [inhibitor, single point] | 
Cc1ccc(-c2csc3ncnc(-n4nnc5ccccc54)c23)cc1 |  | inactive: -1.39%
CCCc1cc(=O)oc2cc(C)cc(OC(C)C(=O)NCc3ccccn3)c12 (centres undefined) | inconclusive [inhibitor, partial curve] | 
CN(C)CCn1c(=O)n(C2CCCCC2)c(=O)c2c3c(sc21)CCCCC3 | inconclusive [inhibitor, single point] | 
Cc1ccc2c(c1)C1CN(C)CCC1N2C(=S)Nc1ccc(OC(F)F)cc1 (centres undefined) | inconclusive [inhibitor, single point] | 
Cc1cc(OC(C)C(=O)NC(Cc2c[nH]c3ccc(O)cc23)C(=O)O)c2c(C)c(C)c(=O)oc2c1 (centres undefined) | inconclusive [inhibitor, partial curve, poor fit] | 
CCOC(=O)Cn1c(=O)oc2cc(S(=O)(=O)Nc3cc(OCC)ccc3OCC)ccc21 |  | inactive: 18.4%
COc1ccc(OC)c(Nc2nc(-c3sc(C)nc3C)cs2)c1 | inconclusive [inhibitor, partial curve] | 
COc1cccc([C@@H]2Oc3ccc(OC)cc3C(=O)[C@H]2O)c1 | inconclusive [inhibitor, full curve] | 
CC1CN(S(=O)(=O)c2ccc(C(=O)Nc3nc(-c4cc5ccccc5o4)cs3)cc2)CC(C)O1 (centres undefined) | inconclusive [inhibitor, full curve] | 
COc1ccc(-c2nc(CCl)cs2)cc1OC | active: 11.2 µM | 
O=C(NCCO)c1ccc2[nH]c3ccccc3c2c1 | inconclusive [inhibitor, single point] | 
COc1ccc(C2CC(=O)Oc3ccc(C(C)(C)C)cc32)cc1 (centres undefined) | inconclusive [inhibitor, single point] | 
COc1ccc(CN2CCCC(C(=O)c3ccc(Cl)cc3)C2)cc1Cn1cccn1 (centres undefined) | active: 10 µM | 

SMILES | Potency | activity change, negative = inhibition
COc1ccc(C(=O)NC(C)C2CC3CCC2C3)cc1 (centres undefined) |  | inactive: 16%
O=[N+]([O-])c1ccc(O)c(/C=N\N=C2c3ccccc3-c3ccccc32)c1 | inconclusive [inhibitor, partial curve] | 
O=C1N=C(N2CCOCC2)S/C1=C/c1ccc(-c2ccccc2Cl)o1 | inconclusive [inhibitor, single point] | 
CC(=O)Nc1ccc(C(=O)Nc2nc(-c3ccccn3)cs2)cc1 |  | inactive: -11.3%
COc1cc(/C=N/NC(=O)Cc2ccc(Br)cc2)cc(OC)c1O | inconclusive [inhibitor, single point] | 
COc1ccc(N(CC(=O)NC2CCCCC2)C(=O)CCCC(=O)Nc2ccccn2)cc1 |  | inactive: 6.39%
Nc1cccc(C(=O)Nc2ccc3nc(-c4cccnc4)[nH]c3c2)c1 | inconclusive [inhibitor, single point] | 
O=C(CCc1ccccc1)NN1C(=O)C2C3C=CC(O3)C2C1=O (centres undefined) |  | inactive: 9.48%
COc1cc(CNc2ccc3[nH]c(=O)[nH]c3c2)cc(Br)c1OCc1ccccc1F | inconclusive [inhibitor, single point] | 
CC/C(=N\Nc1cccc2ccccc12)c1c(O)[nH]c(=O)[nH]c1=O | inconclusive [inhibitor, single point] | 
COc1cc(/C=N/n2c(-c3ccccc3)n[nH]c2=S)cc(OC)c1O |  | inactive: 12%
COc1cnn(-c2cc(Oc3ccc(C)cc3)ncn2)c(=O)c1Cl |  | inactive: 11.5%
Cc1ccsc1C(=O)N(C)C1CCS(=O)(=O)C1 (centres undefined) |  | inactive: -6.9%
Cc1ccc(NC(=O)CN2CCC(C(=O)c3ccc4c(c3)OCCO4)CC2)cc1 | inconclusive [inhibitor, single point] | 
O=C(Nc1cccc(C(F)(F)F)c1)C1CCN(S(=O)(=O)c2ccc(N3CCCC3=O)cc2)CC1 | active: 6.31 µM | 
COc1ccc2c(c1OC)c(=O)n1c3ccc(OC(C)C(=O)NCCCN4CCOCC4)cc3c3ccnc2c31 (centres undefined) | inconclusive [inhibitor, full curve, poor fit] | 
CCN1C(=O)[C@H]2[C@@H](c3ccc(SC4CCCCC4)cc3)N[C@@](CC(C)C)(C(=O)OC)[C@H]2C1=O | inconclusive [inhibitor, single point] | 
O=S(=O)(NCC1CCCO1)c1ccc(Oc2ccccc2)cc1 (centres undefined) | inconclusive [inhibitor, single point] | 
Cc1cccc(NC(=O)Nc2cccc(Oc3c(F)c(F)c(F)c(F)c3F)c2)c1 | active: 11.2 µM | 
COc1ccc(C(C(=O)NC(C)(C)C)N(C(=O)CCC(=O)Nc2cc(C)on2)c2c(C)cccc2C)cc1 (centres undefined) | inconclusive [inhibitor, single point] | 
COc1ccccc1CNC(=O)COC(=O)C1CC1 |  | inactive: 0.858%
CCOC(=O)c1c(C)n(C)c2ccc(OC(C)C(=O)OC)cc12 (centres undefined) | inconclusive [inhibitor, partial curve] | 
